Test results published in article PMC4336329 (PLoS ONE, 2015).
Out of some 310,000 compounds screened, about 2,200 (0.71%) showed an effect of 50% or more. Effects have a minus sign here. Some of the results follow.

molecular target: human ether-à-go-go-related gene (hERG) potassium channel (human, UniProt Q12809); experiment: primary screen, population patch clamp on CHO cells stably expressing hERG
Sequence (Q12809 whole entry, looked up): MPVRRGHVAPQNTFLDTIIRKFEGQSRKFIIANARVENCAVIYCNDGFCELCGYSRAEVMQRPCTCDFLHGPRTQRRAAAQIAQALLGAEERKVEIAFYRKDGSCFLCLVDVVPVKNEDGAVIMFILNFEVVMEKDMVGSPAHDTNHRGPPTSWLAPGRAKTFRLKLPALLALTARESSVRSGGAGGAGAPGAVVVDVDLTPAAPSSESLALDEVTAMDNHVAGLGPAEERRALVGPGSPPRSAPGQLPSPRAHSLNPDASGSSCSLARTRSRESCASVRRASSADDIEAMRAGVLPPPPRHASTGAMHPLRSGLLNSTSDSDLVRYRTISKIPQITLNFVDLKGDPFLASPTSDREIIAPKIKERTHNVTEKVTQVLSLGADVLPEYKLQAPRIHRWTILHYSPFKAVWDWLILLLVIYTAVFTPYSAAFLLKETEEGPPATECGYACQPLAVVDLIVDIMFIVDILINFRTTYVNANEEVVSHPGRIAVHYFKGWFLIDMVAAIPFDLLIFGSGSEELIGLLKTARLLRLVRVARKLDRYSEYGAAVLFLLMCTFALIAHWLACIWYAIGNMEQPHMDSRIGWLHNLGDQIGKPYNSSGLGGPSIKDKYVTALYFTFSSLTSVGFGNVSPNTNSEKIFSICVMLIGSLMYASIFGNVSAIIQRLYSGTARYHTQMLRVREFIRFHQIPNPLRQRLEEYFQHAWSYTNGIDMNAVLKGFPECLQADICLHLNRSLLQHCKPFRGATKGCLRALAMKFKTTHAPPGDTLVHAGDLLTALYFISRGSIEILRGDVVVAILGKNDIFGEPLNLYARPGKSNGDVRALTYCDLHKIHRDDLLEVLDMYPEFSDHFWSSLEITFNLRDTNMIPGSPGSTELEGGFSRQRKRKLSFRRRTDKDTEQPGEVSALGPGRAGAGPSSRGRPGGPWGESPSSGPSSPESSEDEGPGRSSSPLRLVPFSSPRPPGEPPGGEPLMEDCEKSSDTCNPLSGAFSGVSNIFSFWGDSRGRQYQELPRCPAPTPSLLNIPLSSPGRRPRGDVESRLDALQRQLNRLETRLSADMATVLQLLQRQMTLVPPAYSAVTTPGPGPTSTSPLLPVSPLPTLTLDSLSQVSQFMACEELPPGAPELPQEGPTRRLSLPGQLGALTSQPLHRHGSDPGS

Going from `N#CC1=C(N)N(c2ccccc2)C(c2ccco2)C1(C#N)C#N` (centres unmarked) to `O=C1OCC2=C1C(c1ccccc1)CC(=O)N2c1ccccc1` (centres unmarked), the “hERG current change (%, negative = inhibition) at 1uM” value rises from -4.24% to 7.24%.

First: COc1ccc([C@@H]2[C@@H]3C(=O)N(C(C)(C)C)C(=O)[C@@H]3[C@]3(Cc4ccccc4)C(=O)N(c4cccc(Br)c4)C(=O)N23)cc1
Second: COCCNC(=O)CSc1nnc(CCCN2C(=O)c3cccc4cccc(c34)C2=O)n1-c1ccccc1
The “hERG current change (%, negative = inhibition) at 1uM” value of the first is higher: 17.3% for the first, 10.3% for the second.

Compared with `O=C(COC(=O)Cc1ccc(Cl)cc1)Nc1c(F)cccc1F`, `Fc1ccc(CNC(=S)NCc2cccc(Cl)c2)cc1` is lower in “hERG current change (%, negative = inhibition) at 1uM” value: 4.07% for the first, 2.82% for the second.

First: c1ccc(Cn2ccnc2SCc2nnc(-c3ccccc3)o2)cc1
Second: O=C1NC(c2ccccc2)=NC1(NS(=O)(=O)c1ccccc1)C(F)(F)F (centres unmarked)
The “hERG current change (%, negative = inhibition) at 1uM” value of the first is higher: 4.9% for the first, -3.22% for the second.

First: O=c1ccnc(Nc2ccc3c(c2)OCCO3)[nH]1
Second: CC(C)c1nc(SCC(=O)Nc2ccc3c(c2)OCCO3)c2c(=O)n(C)c(=O)n(C)c2n1
The “hERG current change (%, negative = inhibition) at 1uM” value of the first is lower: 12.3% for the first, 18.9% for the second.

Going from `CC(C)c1cccc(C(C)C)c1NC(=O)CN1C(=O)NC2(CCCC2)C1=O` to `COc1ccc(NC(=O)CCCN2C(=O)CN(C)C2=O)cc1Cl`, the “hERG current change (%, negative = inhibition) at 1uM” value falls from 14.1% to 5.38%.

Compared with `O=C(O)CN1CCN(Cc2cccc(Cl)c2)C1=O`, `Cc1oc(-c2cccc(Cl)c2)nc1CN1CCC(C(=O)NCC2CCCO2)CC1` (centres unmarked) is lower in “hERG current change (%, negative = inhibition) at 1uM” value: 25.1% for the first, -31.8% for the second.

Going from `Cc1ccc(S(=O)(=O)N2CCOCC2)cc1NC(=O)COC(=O)c1ccc2c(c1)OCO2` to `Cc1ccc(S(=O)(=O)N2CCCCC2)cc1NS(=O)(=O)c1cccc(C(=O)O)c1`, the “hERG current change (%, negative = inhibition) at 1uM” value falls from 19% to 6.22%.

Going from `CC(=O)C1C2c3ccccc3OC1(C)N=c1s/c(=C/c3cnn(C)c3)c(=O)n12` (centres unmarked) to `CSc1nc(O)c(C2OC(=O)c3ccccc32)c(=O)[nH]1` (centres unmarked), the “hERG current change (%, negative = inhibition) at 1uM” value rises from -9.19% to 14%.

First: COc1ccc(/C=N/Nc2nc(N)cc(Cl)n2)cc1OC
Second: COc1cc(/C=N/Nc2nc(Nc3ccccc3)nc(N3CCOCC3)n2)ccc1OC(=O)c1ccco1
The “hERG current change (%, negative = inhibition) at 1uM” value of the first is lower: 4.21% for the first, 10.5% for the second.

Compared with `COc1ccc([C@H]2CC(=O)C=C(c3ccc(OC(F)(F)F)cc3)C2)cc1`, `COc1ccc(C(=O)C(Sc2nnc(C)c(=O)[nH]2)c2ccc(OC)cc2)cc1` (centres unmarked) is lower in “hERG current change (%, negative = inhibition) at 1uM” value: 10.9% for the first, 1.35% for the second.

Compared with `Cl.Clc1ccc2nc3c(c(-c4ccccc4)c2c1)CNCC3`, `Cc1cc(C(=O)Nc2ccc(Cl)cc2)c2ccccc2n1` is higher in “hERG current change (%, negative = inhibition) at 1uM” value: -0.111% for the first, 8.41% for the second.

First: Cc1ccc(C(=O)Nc2cnc3ccccn3c2=O)cc1
Second: Cc1ccc(Cn2c(CCC(=O)O)nc3ncccc3c2=O)cc1
The “hERG current change (%, negative = inhibition) at 1uM” value of the first is lower: -16.5% for the first, 15.1% for the second.

Going from `CCOc1ccccc1NC(=O)NCCc1c[nH]c2ccccc12` to `Cc1ccccc1C(=O)NC(=S)Nc1ccccc1[N+](=O)[O-]`, the “hERG current change (%, negative = inhibition) at 1uM” value rises from 11.5% to 16%.

First: Cc1ccc(S(=O)(=O)N(C)C)cc1NC(=O)COc1ccc(-c2nnco2)cc1
Second: CCN(CC)S(=O)(=O)c1ccc(NC(=O)c2cc(C(=O)OC)cc([N+](=O)[O-])c2)cc1
The “hERG current change (%, negative = inhibition) at 1uM” value of the first is higher: 14.7% for the first, 7.16% for the second.

Going from `CC(=O)Nc1ccc(O)cc1[N+](=O)[O-]` to `CC(=O)Nc1ccccc1OCC(=O)NC1CCCCC1C` (centres unmarked), the “hERG current change (%, negative = inhibition) at 1uM” value rises from 7.63% to 9.83%.

Going from `CCOC(=O)C1CCN(S(=O)(=O)c2ccc3[nH]c(=O)oc3c2)CC1` to `CCOC(=O)C1CCCN(Cc2nc(Cc3cccc(F)c3)no2)C1` (centres unmarked), the “hERG current change (%, negative = inhibition) at 1uM” value rises from 3.58% to 8.74%.

Going from `COc1ccc(N2CCN(C(=O)CSc3nnc4c5cc(C)ccc5n(C)c4n3)CC2)cc1` to `CCOc1ccc(-c2nc(N)ncc2Oc2ccc(OC)cc2)c(O)c1`, the “hERG current change (%, negative = inhibition) at 1uM” value falls from 9.36% to 7.09%.

Compared with `O=S(=O)(c1ccc(Cl)cc1)N1CCN(CCc2ccncc2)CC1`, `CC(OC(=O)c1ccc(S(=O)(=O)N2CCCCC2)cc1)C(=O)Nc1ccc(C(N)=O)cc1` (centres unmarked) is higher in “hERG current change (%, negative = inhibition) at 1uM” value: -14.5% for the first, 9.21% for the second.

First: O=C1CC(=O)N(Cc2ccccc2)C(=O)N1CCCCCCN1C(=O)CC(=O)N(Cc2ccccc2)C1=O
Second: COCCCn1c(=O)c2sccc2n(Cc2ccc(C)cc2)c1=O
The “hERG current change (%, negative = inhibition) at 1uM” value of the first is lower: 10.8% for the first, 21.2% for the second.

Going from `CCC(C)NC(=O)/C=C/c1cccs1` (centres unmarked) to `CC(C)(C)OC(=O)N/N=C\C=C\c1ccc2c(c1)OCO2`, the “hERG current change (%, negative = inhibition) at 1uM” value falls from 11.3% to 11.1%.

Going from `CCCc1n[nH]c2c1/C(=N/O)CC(c1ccccc1)C2` (centres unmarked) to `CCOc1cc(N2CCOCC2)c(OCC)cc1NC(=O)c1cc(C)nc2ccccc12`, the “hERG current change (%, negative = inhibition) at 1uM” value rises from 3.59% to 13%.

Compared with `CN=C1SC(C(=O)O)CC(=O)N1C` (centres unmarked), `COC(=O)C1=C(C)N(CCCC(=O)O)C(=O)NC1c1ccc2c(c1)OCO2` (centres unmarked) is lower in “hERG current change (%, negative = inhibition) at 1uM” value: 13.8% for the first, 9.04% for the second.

`CCOC(=O)N1CCN(C(=O)c2cc(C)no2)CC1` and `CCOC(=O)N1CCN(C(=O)c2ccc(N(C)S(C)(=O)=O)cc2)CC1` are the same in “hERG current change (%, negative = inhibition) at 1uM” value: 14.1% for the first, 14.1% for the second.

Compared with `Nn1c(SCC(=O)NC2CCCC2)nnc1-c1ccccc1F`, `O=C(COC(=O)C12CC3CC(CC(C3)C1)C2)Nc1ccccc1F` is higher in “hERG current change (%, negative = inhibition) at 1uM” value: 9.32% for the first, 18% for the second.

First: COc1cccc(CSc2nc3sc(C)c(C)c3c(=O)n2Cc2ccco2)c1
Second: Cc1nn(Cc2ccc(Cl)cc2Cl)c(Cl)c1C(=O)Nc1ccc(OC(F)F)cc1
The “hERG current change (%, negative = inhibition) at 1uM” value of the first is higher: 9.03% for the first, 3.09% for the second.

Going from `CN(C(=O)Cc1ccc2c(c1)OCO2)C1CCCN(Cc2ccccc2F)C1` (centres unmarked) to `Cc1ccc(S(=O)(=O)N2CCc3cc4c(cc3C2C)OCCCO4)cc1` (centres unmarked), the “hERG current change (%, negative = inhibition) at 1uM” value rises from 8.49% to 21.5%.

First: Clc1cccc(Cl)c1/C=C/c1nc2ccccc2[nH]1
Second: Cc1cc[n+](-c2[nH]c(=O)sc2/C=N/N=C(\[O-])c2ccncc2)cc1
The “hERG current change (%, negative = inhibition) at 1uM” value of the first is lower: -4.05% for the first, -1.23% for the second.
